# Results: paper PMC12136788
# This is one part of the list.
# B1: chr12:110350735:110350839:+|3pUTR|ENSG00000174437|unk|FALSE|unique (ssRNA)
# RNA: GGGAGUUCUACAGUCCGACGAUCUACAGUUUGCUUAUUUAUAAAUUCAUUAAAAACACUACAGGUGUUGAAUGGUUAAAAUGUAGGCCUCCAGUUCAUUUUCAGUUAUUUUCUGAGUGUGCAGACAGCUAUUUCGCACUGUAUCAACAGAGGAUUGAGCAUCA
# B2: chr1:93346344:93346492:+|5pUTR|ENSG00000117505|unk|total|mutant (ssRNA)
# RNA: GGGAGUUCUACAGUCCGACGAUCGCCGCUCAAAUUUCCGGACCACCGCGCUUUCCCCUCCUCAGCCUGGGCUGUGCUCUCUCCCGAAUCCUCGGGCCCCCACUUUCUUCCCAAACUCAUCCUAAAUCUCUCACACACGCGAGUCAACAGAGGAUUGAGCAUCA
# B3: chr4:103158754:103158855:-|CDS|ENSG00000138778|msi1|total|mutant (ssRNA)
# RNA: GGGAGUUCUACAGUCCGACGAUCGGAGAAAACACGUGAGGUUCAAGAAAGACUAAAUGAGAUGGAACAGCUGAAGGAACAAUCCGAAAACCGAGAUUCUACGCUGCAAACUGCCGAAAGGGAGAAAACACUGAUUACUGAGAACAACAGAGGAUUGAGCAUCA
# B4: chr19:58083837:58084684:-|three_prime_utr|ENSG00000121413|control|control|control (ssRNA)
# RNA: GGGAGUUCUACAGUCCGACGAUCGCUCGCAUCCGAGGGGAGCCGCCGGAUGUGGAAGAAGACUCGGCUUUCCUGCAGCCAUUUAGUGCCGCCCCAUGCUAGGUUAUUUGACAUUGUGCAGUGUAGAGUUGCCUUAAAGUGCGUCAACAGAGGAUUGAGCAUCA
# B5: chr2:120221238:120221343:-|3pUTR|ENSG00000226479|unk|total|mutant (ssRNA)
# RNA: GGGAGUUCUACAGUCCGACGAUCAUAUGUUGAAUUCCCGUUCUCUGCAUUACCAUUAUUACGUUAAAGUAUUUUUUAAAGCUCCGGUGUGAAGAUAUGUGUCUAUUGCAGAUGUCCUUGAAAACUGCAUAAAACAGUAUGUGCCAACAGAGGAUUGAGCAUCA
# B6: chr5:119149357:119149458:+|CDS|ENSG00000172869|msi1|FALSE|unique (ssRNA)
# RNA: GGGAGUUCUACAGUCCGACGAUCCUGGGAGAGUACCAAAGUUGUGCCCCUUUCUAAAUUUGUACUAUUACGAAGUGUGGACCUAGUUUCUUCUGUAGAUGGCUCCCCACCUUUUCCUGUUUCUUUAUCGUGGGUCCGGGAUGGCAACAGAGGAUUGAGCAUCA
# B7: ENSG00000115216:stop:overlap|stop_codon|ENSG00000115216|stop_codon|NA|stop_codon (ssRNA)
# RNA: GGGAGUUCUACAGUCCGACGAUCACAAGUUCAAUUUUGCCAGGAACAGUACCCUCAACUCAGCCGCUGUCACCGUCUCCUCUUAGAGCUCACUCGGGCCAGGCCCUGAUCUGCGCUGUGGCUGUCCCUGGACGUGCUGCAGCCCAACAGAGGAUUGAGCAUCA
# B8: ENSG00000132341:stop:overlap|stop_codon|ENSG00000132341|stop_codon|NA|stop_codon (ssRNA)
# RNA: GGGAGUUCUACAGUCCGACGAUCUCUCGCCCCACCAGAAGUUGUCAUGGACCCAGCUUUGGCAGCACAGUAUGAGCACGACUUAGAGGUUGCUCAGACAACUGCUCUCCCGGAUGAGGAUGAUGACCUGUGAGAAUGAAGCUGCAACAGAGGAUUGAGCAUCA
# B9: chr3:194644572:194644746:-|CDS|ENSG00000041802|control|control|control (ssRNA)
# RNA: GGGAGUUCUACAGUCCGACGAUCGCAUCAACACCAGCGACUCCUAGAGAACAAAAUGAACAGUGAUGAAAUAAAAAUGCAGCUAGGCAGAAAUAAAAAAGCAAAGCAGAUUGAAAAUAUCGUUGACAAAACUUUUUUCCAUCACAACAGAGGAUUGAGCAUCA
# B10: chr12:104012598:104012803:-|three_prime_utr|ENSG00000120820|control|control|control (ssRNA)
# RNA: GGGAGUUCUACAGUCCGACGAUCCUGAGAUGCUGGAAGCUAAGACGUUAACAAACGGACUCUGGAGGACACAAUUCAGUCCAUAGCAGUAUCUACACCUCAAUAAACUGUUCUAAAAGAGAGAGAGAGAGAAGGAAGUCACAUCAACAGAGGAUUGAGCAUCA
# B11: chr6:144852070:144852171:+|3pUTR|ENSG00000152818|unk|FALSE|unique (ssRNA)
# RNA: GGGAGUUCUACAGUCCGACGAUCAAGUCCUUAAUAGUUCUUGAAACUCCUAGUUGUUUUCUUGUUGAAAGCAGACACACAUUUAGUGCACGGCUUAUUUUACCUUUCGGGUGAAAGAUCAGAUGUUUUUAUACCCUUCACUUGCAACAGAGGAUUGAGCAUCA
# B12: chr8:58583617:58583718:-|3pUTR|ENSG00000035681|unk|FALSE|unique (ssRNA)
# RNA: GGGAGUUCUACAGUCCGACGAUCGUUUUGUCUUCCUAAUCUAUCACAAUUGCCACCCAUCGGGUUUUGGGUGUGUGUUUUCAUAGCGUGGUUACUUUCUAUAAUGCUGUACCCAGAUUCUAAGAACCUGGAGAAGGAUUAGCACAACAGAGGAUUGAGCAUCA
# B13: chr7:83961326:83961382:-|CDS_3pUTR|ENSG00000075213|msi1_unk|total|mutant (ssRNA)
# RNA: GGGAGUUCUACAGUCCGACGAUCAAACAGGAGGACCCACGAAUUUGAGAGGGCACCCAGGAGUGUCUGAGCUGCAUUACCUCCCGAAACCUCAAACAAGCCGAAACUUGCCCCGACAAUAACUGGAAAAACAAAUGCAAUAUACAACAGAGGAUUGAGCAUCA
# B14: chr21:43982464:43982545:+|3pUTR|ENSG00000160216|msi1_unk|FALSE|overlapping (ssRNA)
# RNA: GGGAGUUCUACAGUCCGACGAUCCCCUGACGGUGGUAUCCAGUUAACUCAAAACCAACACACAGAGUGCAGGAAAAGACAAUUAGAAACUAUUUUUCUUAUUAACUGGUGACUAAUAUUAACAAAACUUGAGCCAAGAGUAAACAACAGAGGAUUGAGCAUCA
# Molecular target: MSI1 full-length (mouse, UniProt Q61474 1-362)
# UniProt Q61474, sequence (Q61474 whole entry): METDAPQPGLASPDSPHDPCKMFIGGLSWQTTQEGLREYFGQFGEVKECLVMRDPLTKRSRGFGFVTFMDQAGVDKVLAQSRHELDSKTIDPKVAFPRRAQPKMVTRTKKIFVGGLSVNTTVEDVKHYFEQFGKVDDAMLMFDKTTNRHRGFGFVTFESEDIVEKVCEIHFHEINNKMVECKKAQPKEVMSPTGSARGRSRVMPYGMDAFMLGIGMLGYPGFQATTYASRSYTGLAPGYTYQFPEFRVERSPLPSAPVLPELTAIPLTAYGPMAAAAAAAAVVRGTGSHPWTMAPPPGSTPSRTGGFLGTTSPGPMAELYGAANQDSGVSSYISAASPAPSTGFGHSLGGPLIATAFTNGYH
# Experiment: nsRBNS (natural sequence RNA bind-n-seq); RBNS binding buffer (assumed for nsRBNS): 25 mM Tris pH 7.5, 150 mM KCl, 3 mM MgCl2, 0.01% Triton X-100, 500 ug/ml BSA, 20 U/ml SUPERase-In, 4 C; UNK is unkempt and MSI1 is Musashi-1; names of the RNAs are library labels; protein concentration not given here; high values mean tight binding
row,Binder,binding signal
1,B1,0.745 enrichment R
2,B2,1.04 enrichment R
3,B3,0.495 enrichment R
4,B4,0.686 enrichment R
5,B5,0.867 enrichment R
6,B6,0.952 enrichment R
7,B7,0.763 enrichment R
8,B8,0.416 enrichment R
9,B9,0.528 enrichment R
10,B10,0.905 enrichment R
11,B11,1.29 enrichment R
12,B12,0.431 enrichment R
13,B13,0.373 enrichment R
14,B14,0.745 enrichment R
